A collection of fitness landscapes (doi:10.1126/science.1257360)
The list shows a part of the results.

B1: PhoQ; a variant is named by its letters at X, in order, P23837 (parent)
chain: MKKLLRLFFPLSLRVRFLLATAAVVLVLSLAYGMVALIGYSVSFDKTTFRLLRGESNLFYTLAKWENNKLHVELPENIDKQSPTMTLIYDENGQLLWAQRDVPWLMKMIQPDWLKSNGFHEIEADVNDTSLLLSGDHSIQQQLQEVREDDDDAEMTHSVAVNVYPATSRMPKLTIVVVDTIPVELKSSYMVWSWFIYVLSANLLLVIPLLWVAAWWSLRPIEALAKEVRELEEHNRELLNPATTRELTSLVRNLNRLLKSERERYDKYRTTLTDLTHSLKTPLXXLQXXLRSLRSEKMSVSDAEPVMLEQISRISQQIGYYLHRASMRGGTLLSRELHPVAPLLDNLTSALNKVYQRKGVNISLDISPEISFVGEQNDFVEVMGNVLDNACKYCLEFVEISARQTDEHLYIVVEDDGPGIPLSKREVIFDRGQRVDTLRPGQGVGLAVAREITEQYEGKIVAGESMLGGARMEVIFGRQHSAPKDE

Variants of: B1
Experiment: enrichment ratio after two sorts for PhoP signalling (ratio (wild type AVST 3.29)); higher = more functional
Details: with PhoP (E. coli)

Variant | enrichment ratio
WDLC | ≤ 0.25
HTGF | ≤ 0.25
ACDF | ≤ 0.25
PCKI | ≤ 0.25
PILA | ≤ 0.25
TMDS | ≤ 0.25
SDNG | ≤ 0.25
AHPQ | ≤ 0.25
FHLC | ≤ 0.25
YDSM | ≤ 0.25
VSFY | 2.3
ELTP | ≤ 0.25
IYDK | ≤ 0.25
VLFI | ≤ 0.25
ICNL | ≤ 0.25
MKYM | 6.46
PWAN | ≤ 0.25
MQKK | ≤ 0.25
NSPI | ≤ 0.25
YPVC | ≤ 0.25
LAGM | ≤ 0.25
YEDM | ≤ 0.25
YNQA | ≤ 0.25
QQRH | ≤ 0.25

Variant | enrichment ratio
GRTR | ≤ 0.25
AEVY | 6.64
IGCA | ≤ 0.25
QPMR | ≤ 0.25
GFMA | ≤ 0.25
TALD | 5.84
TTTF | 7.89
VSRM | ≤ 0.25
TEWV | 18.4
KTAD | ≤ 0.25
PIGM | ≤ 0.25
VYHF | ≤ 0.25
LMNG | ≤ 0.25
SYIV | 0.657
DGVP | ≤ 0.25
HNMQ | ≤ 0.25
SLEG | ≤ 0.25
TRPF | ≤ 0.25
FEHP | ≤ 0.25
SHSA | ≤ 0.25
VPIL | ≤ 0.25
IDLL | ≤ 0.25
TLSS | 12
EAVR | ≤ 0.25

Variant | enrichment ratio
TAHQ | 1.58
RWYH | ≤ 0.25
TPDS | ≤ 0.25
FQFS | ≤ 0.25
SHKI | ≤ 0.25
VWRC | ≤ 0.25
SFQT | ≤ 0.25
VSIK | ≤ 0.25
LFFS | ≤ 0.25
PIQL | ≤ 0.25
AWVD | ≤ 0.25
QAVK | ≤ 0.25
PAST | ≤ 0.25
YNWK | ≤ 0.25
QESS | 19.7
PVIR | ≤ 0.25
FGVV | 0.429
DLRQ | ≤ 0.25
KRAI | ≤ 0.25
QVGR | ≤ 0.25
WLHL | ≤ 0.25
GLGM | ≤ 0.25
PENG | ≤ 0.25
YKVN | ≤ 0.25

Variant | enrichment ratio
SGAM | 9.22
EGCH | ≤ 0.25
LPAR | ≤ 0.25
MDDI | ≤ 0.25
RAGA | ≤ 0.25
NIAQ | ≤ 0.25
QHWK | ≤ 0.25
KTME | ≤ 0.25
KKWK | ≤ 0.25
YIWL | ≤ 0.25
HQDK | ≤ 0.25
SGNQ | ≤ 0.25
ELTH | ≤ 0.25
TAAW | ≤ 0.25
DQGN | ≤ 0.25
NEFL | ≤ 0.25
VLWP | ≤ 0.25
SADA | ≤ 0.25
SDGA | ≤ 0.25
TDVR | ≤ 0.25
RSGN | ≤ 0.25
CIFS | ≤ 0.25
DKIN | ≤ 0.25
TMEW | ≤ 0.25

Variant | enrichment ratio
GVCW | 11.5
LLQN | ≤ 0.25
EQRW | ≤ 0.25
TLNA | 3.71
LAQL | ≤ 0.25
FAWG | ≤ 0.25
YEKV | ≤ 0.25
VACH | ≤ 0.25
RKKW | ≤ 0.25
AACR | 7.58
LECP | ≤ 0.25
KFQF | ≤ 0.25
YRNK | ≤ 0.25
TRYD | ≤ 0.25
RRSP | ≤ 0.25
KDIP | ≤ 0.25
KTSS | ≤ 0.25
SSAR | ≤ 0.25
DWRW | ≤ 0.25
RTIV | ≤ 0.25
NHTF | ≤ 0.25
EAFR | ≤ 0.25
NESW | ≤ 0.25
YYVQ | ≤ 0.25

Variant | enrichment ratio
DMDQ | ≤ 0.25
QEWD | 4.99
ISLG | 3.68
HNML | ≤ 0.25
EIYR | ≤ 0.25
SYPQ | ≤ 0.25
SRTK | ≤ 0.25
PCAR | ≤ 0.25
ARWR | ≤ 0.25
HTTL | 1.2
YEQY | ≤ 0.25
QDQI | ≤ 0.25
TAPL | ≤ 0.25
EPFS | ≤ 0.25
RNGK | ≤ 0.25
HAVH | ≤ 0.25
GPVK | ≤ 0.25
DKKH | ≤ 0.25
AYRG | ≤ 0.25
YELQ | 7.19
KYSS | ≤ 0.25
MGGH | 20.1
SAGF | 8.46
TCPW | ≤ 0.25

Variant | enrichment ratio
QQHG | ≤ 0.25
HFKH | ≤ 0.25
TSGN | 14.9
FHHD | ≤ 0.25
MDVP | ≤ 0.25
TWDQ | ≤ 0.25
ARWL | ≤ 0.25
KMRQ | ≤ 0.25
SHEK | ≤ 0.25
SCVR | 1.05
WTSS | ≤ 0.25
RQLY | ≤ 0.25
FKEI | ≤ 0.25
NSKN | ≤ 0.25
LVWC | ≤ 0.25
DCCE | ≤ 0.25
KDYQ | ≤ 0.25
DWAH | ≤ 0.25
PGRS | ≤ 0.25
TIIG | ≤ 0.25
ERAC | ≤ 0.25
GTHI | ≤ 0.25
PADH | ≤ 0.25
PKER | ≤ 0.25

Variant | enrichment ratio
RAWS | ≤ 0.25
VGTD | ≤ 0.25
KYCW | ≤ 0.25
RELL | ≤ 0.25
HMPL | ≤ 0.25
HMHH | ≤ 0.25
YGDC | ≤ 0.25
FHRN | ≤ 0.25
VNTR | ≤ 0.25
SMNC | ≤ 0.25
EQYL | ≤ 0.25
GCRE | ≤ 0.25
PYPA | ≤ 0.25
YQVM | ≤ 0.25
AVCR | 6.41
SSAL | 12.2
DWSP | ≤ 0.25
NHIS | ≤ 0.25
LLQD | ≤ 0.25
RTQN | 2.93
HQTL | ≤ 0.25
YSEW | ≤ 0.25
LQHP | ≤ 0.25
YTTH | ≤ 0.25

Variant | enrichment ratio
ALEY | ≤ 0.25
NPCL | ≤ 0.25
DTSC | ≤ 0.25
HPDV | ≤ 0.25
RLGL | ≤ 0.25
MESF | ≤ 0.25
RMND | ≤ 0.25
TVIY | ≤ 0.25
PVSR | ≤ 0.25
TMTD | ≤ 0.25
APQM | ≤ 0.25
VKEF | ≤ 0.25
RDFG | ≤ 0.25
RLFN | ≤ 0.25
SWFE | ≤ 0.25
SWTT | ≤ 0.25
TQYP | ≤ 0.25
HEYT | ≤ 0.25
APKF | ≤ 0.25
HHWY | ≤ 0.25
MMDY | ≤ 0.25
RHRE | ≤ 0.25
VELM | 4.12
WHLS | ≤ 0.25

Variant | enrichment ratio
IENT | ≤ 0.25
PFGH | ≤ 0.25
FFIC | ≤ 0.25
DTVQ | ≤ 0.25
KTDC | ≤ 0.25
EFIY | ≤ 0.25
PMVC | ≤ 0.25
ELLW | ≤ 0.25
PCRW | ≤ 0.25
PEHD | ≤ 0.25
VFRQ | ≤ 0.25
YGDY | ≤ 0.25
SWCH | ≤ 0.25
DIMS | ≤ 0.25
VDVL | ≤ 0.25
LRGA | ≤ 0.25
QNFT | ≤ 0.25
VAYK | ≤ 0.25
LDVC | 0.438
AKSA | 3.15
YFCT | ≤ 0.25
NLPR | ≤ 0.25
HWPV | ≤ 0.25
DSAN | ≤ 0.25

Variant | enrichment ratio
WENI | ≤ 0.25
HECY | ≤ 0.25
DRLD | ≤ 0.25
SDNY | 0.96
NRFP | ≤ 0.25
LSNC | ≤ 0.25
NQFG | ≤ 0.25
PKNI | ≤ 0.25
EICH | ≤ 0.25
KTDH | ≤ 0.25
YQER | ≤ 0.25
VQLE | ≤ 0.25
DEQN | ≤ 0.25
YATV | ≤ 0.25
WFIT | ≤ 0.25
PWAV | ≤ 0.25
DNYD | ≤ 0.25
ISSW | ≤ 0.25
KHMN | ≤ 0.25
YIAC | 0.665
TYFC | ≤ 0.25
HWRY | ≤ 0.25
QDPR | ≤ 0.25
VCYT | ≤ 0.25

Variant | enrichment ratio
IPEG | ≤ 0.25
QDYI | ≤ 0.25
GTCE | ≤ 0.25
QHCH | ≤ 0.25
RNYS | ≤ 0.25
PAAE | ≤ 0.25
FPHV | ≤ 0.25
RRNV | ≤ 0.25
REDY | ≤ 0.25
HTII | ≤ 0.25
HECD | ≤ 0.25
YRTE | ≤ 0.25
YIFA | ≤ 0.25
WIWL | ≤ 0.25
NQHN | ≤ 0.25
PERQ | ≤ 0.25
NEPS | ≤ 0.25
FKNG | ≤ 0.25
MWPC | ≤ 0.25
FSNY | ≤ 0.25
RKCT | ≤ 0.25
FNWM | ≤ 0.25
GNAV | 5.92
AQPT | ≤ 0.25

Variant | enrichment ratio
SMMV | 17.9
FIHC | ≤ 0.25
GNQW | ≤ 0.25
TQNE | ≤ 0.25
NLPW | ≤ 0.25
GHFT | ≤ 0.25
PGPL | ≤ 0.25
TCVK | ≤ 0.25
TFVF | ≤ 0.25
HCRN | ≤ 0.25
PSVT | ≤ 0.25
YIWK | ≤ 0.25
INCW | ≤ 0.25
NSMR | ≤ 0.25
FATP | ≤ 0.25
TVTW | ≤ 0.25
FYWA | ≤ 0.25
MGSQ | 4.64
